According to PubChem BioAssay AID504832 (National Center for Advancing Translational Sciences (NCATS), 2011):
“And” between values parts separate entries of the source, which are not always exact repeats. Equal entries are not always repeated. The campaign covered roughly 310,000 compounds. About 18,000 (5.8%) were called active. The inconclusive results got no clear call from the source; some entries with a clear call stand among them for comparison. The call rests on the fitted dose curve; in most records, active means well fitted inhibition curve with a large enough effect; inconclusive means small, poorly fitted or top-dose-only effect, or another doubt; inactive means no such curve, though single readings can be large or run the other way. Potencies of inconclusive entries are doubtful fits and often do not repeat. Non-standard residues stand in square brackets, D forms with d. Residues, ends and D or L forms follow the SMILES beside them. *: point of attachment. PhAc = O=C(Cc1ccccc1)*

assay: Primary qHTS for delayed death inhibitors of the malarial parasite plastid, 48 hour incubation; settings: P. falciparum luciferase growth in erythrocytes; series mostly up to 28.7 µM
How it was run: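 Parasite viability was followed by luminescence of a genomically integrated firefly luciferase. Cultures held 0.1% parasitemia at 2% hematocrit (final), incubated under 5% CO2 at 37 C.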
On the % scale 0 is the no-effect control and ±100 the full control effect; potency means the concentration at half of the fitted maximal effect; tags describe the fitted curve by direction and shape.

Row | SMILES | Potency | activity change, negative = inhibition
1 | CCOc1ccc(C(=O)NC(=S)Nc2ccccc2N2CCOCC2)cc1Br | inconclusive: 9.28 µM [inhibitor, single point] | –
2 | CCCCCCCCOC(=O)CCc1c(C)[nH]c(=S)[nH]c1=O | inconclusive: 14.7 µM [inhibitor, single point] | –
3 | COc1cc(/C=C2/SC(=S)NC2=O)ccc1OS(=O)(=O)c1ccc(C)cc1 | inactive | –
4 | C/C(=N\NC1=NCCN1)c1ccccc1 | inactive | –
5 | COCCn1c(SCC(=O)NC(=O)NC2CCCC2)nc2ccccc2c1=O | inconclusive: 18.5 µM [inhibitor, single point] | –
6 | COc1ccc(Cl)cc1N(C(=O)c1ccco1)C(C(=O)NC1CCCC1)c1ccco1 (stereo not given) | inconclusive: 13.1 µM [inhibitor, partial curve] | –
7 | O=S(=O)(NCc1ccc(Cl)cc1Cl)c1ccc(N2CCOCC2)nc1 | inconclusive: 14.7 µM [inhibitor, single point] | –
8 | COc1ccc([C@H]2CC(=O)C=C(c3ccc(C)c(F)c3)C2)cc1 | inactive | –
9 | Cc1cc(C(=O)Nc2ccc(Cl)cc2)c(C)n1-c1ccccc1 | inconclusive: 16.5 µM [inhibitor, single point] | –
10 | CC(C)C[C@@H](NC(=O)[C@H]1CCCN1C(=O)Cc1ccccc1)C(N)=O (PhAc-[dP]-[dL]-NH2) | – | inactive: 8.09% [at 0.00184 µM]
11 | Cc1cc2c(cc1C)N(C(=O)CSc1nncn1C)C(C)(C)c1ssc(=S)c1-2 | inconclusive: 9.28 µM [inhibitor, partial curve, poor fit] | –
12 | CC(=O)c1cccc(S(=O)(=O)N2CCC(C(=O)O)(c3ccccc3)CC2)c1 | inactive | –
13 | CCN1C(=O)[C@@H]2[C@@H](c3ccc(-c4cccc(Cl)c4)c(OC)c3)N3CCCC[C@@]3(C(=O)OC)[C@@H]2C1=O | active: 10.4 µM | –
14 | CC1(C)c2ccccc2N(CC(N)=O)C12C=Cc1ccccc1O2 (stereo not given) | inconclusive: 18.5 µM [inhibitor, single point] | –
15 | Cc1ccccc1/C=N/Nc1ccc(Cl)nn1 | inactive | –
16 | COc1ccc([C@H]2CC(=O)C=C(c3ccc(Oc4ccccc4)cc3)C2)cc1OC | inconclusive: 18.5 µM [inhibitor, single point] | –
17 | CCOC(=O)C1=Nc2ccccc2C1=[N+]=[N-] | inconclusive: 1.47 µM [inhibitor, full curve] | –
18 | O=C(COc1ccccc1Br)NCCC1=CCCCC1 | inconclusive: 18.5 µM [inhibitor, single point] | –
19 | Cc1nnc(SCC(=O)N2CC(=O)Nc3ccccc32)n1Cc1ccccc1 | inconclusive: 4.15 µM [inhibitor, single point] | –
20 | CCN(CC)S(=O)(=O)c1cccc(NC(=O)c2ccc(-n3nc(C)cc3C)cc2)c1 | inconclusive: 8.28 µM [inhibitor, single point] | –
21 | CC(C)/C=N/Nc1nc(-c2ccc(Br)cc2)cs1 | inactive | –
22 | COc1ccc(C(=O)NC2CCC(O)CC2)cc1S(=O)(=O)NCc1ccc(Cl)cc1 (stereo not given) | active: 13.1 µM | –
23 | C[C@@H]1C2CC(C/C2=N\NC(=O)c2ccncc2)C1(C)C (stereo not given in full) | inactive | –
24 | CSCCC(NC(=O)COc1ccccc1)C(=O)N(C)CC(=O)Nc1ccc(Cl)cc1 (stereo not given) | inconclusive: 11.7 µM [inhibitor, single point] | –

Row | SMILES | Potency | activity change, negative = inhibition
25 | O=C(C1CCCN(Cc2cccnc2)C1)N1CCCCC1 (stereo not given) | inactive | –
26 | CCC(=O)Nc1ccc(/C(C)=N\NC(=O)c2ccc(C)s2)cc1 | inconclusive: 10.4 µM [inhibitor, single point] | –
27 | Cc1ccc(C)c(N2CCN(C(=O)CCC(=O)N3CCOc4ccc(Cl)cc43)CC2)c1 | inconclusive: 13.1 µM [inhibitor, single point] | –
28 | Cc1cc(=O)oc2cc(OCC(=O)N3CCN(C(C)c4ccccc4)CC3)c(Cl)cc12 (stereo not given) | inconclusive: 8.28 µM [inhibitor, partial curve, poor fit] | –
29 | Cc1cc(C)c2c(n1)sc1c(-c3ccccc3)c(C#N)c(N)nc12 | inactive | –
30 | CCOC(=O)COc1ccc(N)cc1CC(NC(C)=O)(C(=O)OCC)C(=O)OCC | inconclusive: 11.7 µM [inhibitor, partial curve, poor fit] | –
31 | COc1ccc(C(=O)NCc2nnc(SCC(=O)NCCc3ccccc3)o2)cc1 | inactive | –
32 | Cc1noc(C)c1CSc1nc2sc(C)c(C)c2c(=O)n1-c1ccccc1 | inconclusive: 13.1 µM [inhibitor, single point] | –
33 | CN(Cc1ccccc1)C(=O)COC(=O)c1ccccc1SCC(=O)N1CCCC1 | inactive | –
34 | CC(NCc1ccc2c(c1)OCO2)C(=O)N1CCc2ccccc21 (stereo not given) | inactive | –
35 | O=C(Nn1cc(C(=O)Nc2ccc(F)cc2F)c2ccccc2c1=O)c1cnccn1 | inconclusive: 14.7 µM [inhibitor, single point] | –
36 | COc1ccc(CN(C)C(=O)CNC(=O)c2cccs2)c(OC)c1 | inconclusive: 16.5 µM [inhibitor, single point] | –
37 | Cc1ccc(N=CN(C)C=Nc2ccc(C)cc2C)c(C)c1 | inactive | –
38 | CC1CC2(CCCCC2)Nc2c1ccc1ccccc21 (stereo not given) | inconclusive: 14.7 µM [inhibitor, partial curve, poor fit] | –
39 | N#CCC(=O)N/N=C/c1ccc(OCc2ccccc2)cc1 | inactive | –
40 | COc1ccc(NC(=O)CSc2nc3sc(C)cc3c(=O)n2C)c(OC)c1 | inconclusive: 4.65 µM [inhibitor, partial curve, poor fit] | –
41 | Cc1ccccc1NC(=O)CCSc1nnnn1-c1ccccc1 | inconclusive: 18.5 µM [inhibitor, single point] | –
42 | COc1ccc(OCCn2c(NC(=O)c3ccco3)nc3ccccc32)cc1 | inconclusive: 9.28 µM [inhibitor, partial curve] | –
43 | Cn1c(CNC(=O)c2ccco2)nnc1SCCOc1ccccc1 | inactive | –
44 | COC(=O)[C@@H](C)NC(=O)c1ccc2oc(CCc3ccccc3)nc2c1 | inactive | –
45 | CC(C)c1ccc(C2=NN(c3ccccc3)C(=O)CC2)cc1 | inconclusive: 9.28 µM [inhibitor, partial curve, poor fit] | –
46 | Cc1oc(-c2cccs2)nc1CN1CCC(CO)(CCOc2ccccc2)CC1 | inconclusive: 18.5 µM [inhibitor, single point] | –
47 | O=C(NC1CCCCCC1)C(=S)NC1CCCCC1 | inactive | –
48 | Cc1ccc(Cl)cc1N1CCN(C(=O)CCC(=O)O)CC1 | inactive | –

Row | SMILES | Potency | activity change, negative = inhibition
49 | Cc1cc(NC(=O)CCC(=O)N(c2ccccc2)C(C(=O)NC(C)(C)C)c2ccccc2Cl)no1 (stereo not given) | active: 13.1 µM | –
50 | CC(=O)c1c(C)oc2c1cc(NS(=O)(=O)c1ccc(C(=O)O)cc1)c1ccccc12 | inactive | –
51 | CCN(CC)CCNCC(=O)N1c2ccccc2CCc2ccc(NC(=O)OC)cc21 | inconclusive: 18.5 µM [inhibitor, single point] | –
52 | Cc1ccc(C)c(NC(=O)C2C(c3ccccc3)C2(Cl)Cl)c1 (stereo not given) | inconclusive: 20.8 µM [inhibitor, partial curve, poor fit] | –
53 | CC(=O)Nc1ccc(-c2csc(NC(=O)CC(NC(C)=O)c3ccccc3)n2)cc1 (stereo not given) | inconclusive: 5.22 µM [inhibitor, partial curve] | –
54 | C=CCN(C(=O)Cn1nc(C)n2c(cc3cc(C)ccc32)c1=O)c1ccccc1 | inactive | –
55 | COc1cccc(N2C(=O)C(CC(=O)Nc3ccc(F)cc3)N(C3CCCCC3)C2=O)c1 (stereo not given) | inconclusive: 18.5 µM [inhibitor, single point] | –
56 | CCOC(=O)C(=CNc1nc(-c2ccccc2)c(C(=O)Nc2ccc(-c3ccccc3)cc2)s1)C(=O)OCC | inconclusive: 11.7 µM [inhibitor, single point] | –
57 | CC(C)CC(=O)Nc1ccc(C(=O)COC(=O)CN2C(=O)NC3(CCCCC3C)C2=O)cc1 (stereo not given) | inconclusive: 18.5 µM [inhibitor, single point] | –
58 | O=c1/c(=C\c2ccc(O)cc2)sc2nc(-c3ccccc3)c(-c3ccccc3)n12 | inconclusive: 13.1 µM [inhibitor, single point] | –
59 | COc1ccc(N2CCN(C(=O)c3oc4ccccc4c3NC(=O)CCc3cc(OC)no3)CC2)cc1 | inconclusive: 13.1 µM [inhibitor, single point] | –
60 | Cc1cc(-c2ccccc2)cc(-c2ccccc2)[n+]1C | active: 10.4 µM | –
61 | COc1ccc(/C=N/Nc2ncnc3c2[nH]c2ccc(C)cc23)c(OC)c1OC | inconclusive: 18.5 µM [inhibitor, single point] | –
62 | COc1cccc(NC(=O)C(c2ccccc2)N2CCN(CC(=O)N3CCOCC3)CC2)c1 (stereo not given) | inconclusive: 18.5 µM [inhibitor, single point] | –
63 | O=C(CSc1nnc(CNC(=O)c2cccs2)o1)NC1CCCC1 | inactive | –
64 | O=C1C(Cl)=CC(=Nc2ccc(O)cc2)C=C1Cl | inconclusive: 14.7 µM [inhibitor, single point] | –
65 | COc1ccc2cc(C(=O)C3CCCN(Cc4cccc(C)n4)C3)ccc2c1 (stereo not given) | active: 0.657 µM | –
66 | CCCc1nc(SCC(=O)Nc2ccc(S(=O)(=O)N(C)C)cc2)c2ccccc2n1 | inconclusive: 10.4 µM [inhibitor, partial curve] | –
67 | CC(C)(C)n1nnnc1C(c1ccc(C#N)cc1)N1CCCC2(CCCCC2)C1 (stereo not given) | inconclusive: 1.65 µM [inhibitor, full curve] | –
68 | Cc1ccc2[nH]c3c(c2c1)CCc1cn[nH]c1-3 | inconclusive: 14.7 µM [inhibitor, single point] | –
69 | O=C(c1ccccc1)C1CCc2occc2C1=O (stereo not given) | inconclusive: 18.5 µM [inhibitor, single point] | –
70 | NC(=O)c1ccnc2c(O)cccc12 | inconclusive: 11.7 µM [inhibitor, partial curve] and inconclusive: 13.1 µM [inhibitor, partial curve, poor fit] | –
